The other results are listed elsewhere or left out.
System: PfAP2-HC AP2 domain (GST-tagged)
Assay: gcPBM binding intensity (ln(normalized median fluorescence intensity)); higher = stronger DNA binding
Outline: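 GST-tagged P. falciparum DNA-binding domains produced in E. coli were incubated for 1 h on an Agilent 4 × 180k array of primer-extended double-stranded 36-bp intergenic genomic probes with negative controls. Binding intensity is the highest Masliner-normalised natural-log median intensity across replicate spots of either probe orientation, with bound protein detected by Alexa488 anti-GST antibody at 488 nm.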

Compared with “GTATGTTTAATTTTAGTGCAATTATAAATATTTTAA [GTGCAC_site9531]”, “AAGAAAATAAAATAAAAAAAAAAATAAAAAAAATAA [TGCATGCA_negctrl_site516]” is higher in “gcPBM binding intensity (ln)” value: 9.38 for the first, 9.51 for the second.

First: AAATTGTCTGCATATAGTACATAAATATATTAATAT [XGTACX_site4557]
Second: ATATATATATATATAGTGCATAATGTTTTAATAGAT
The “gcPBM binding intensity (ln)” value of the first is lower: 9.61 for the first, 9.82 for the second.

Going from “TCTTTATATATATATATATGTGTGAATGTTAAGTAT [XGTACX_negctrl_site135]” to “ATTTTTTTTTTTTCCTTACACACATATTTCATTTTA [CACACA_site748]”, the “gcPBM binding intensity (ln)” value rises from 9.59 to 10.3.

Compared with “CTATTAAAAAAATTATGTACACAACGTCTCTATATA [XGTACX_site4813]”, “TACATTTTTATTTTTACACACATATATATATATATA [CACACA_site1021]” is higher in “gcPBM binding intensity (ln)” value: 9.64 for the first, 9.87 for the second.

Going from “GAGTTTATTCTTTTTATACACACCTTATTTGATTAA [CACACA_site735]” to “TATAATATATTTATATGTACTTATTTATTTATATAT [XGTACX_site6519]”, the “gcPBM binding intensity (ln)” value falls from 9.83 to 9.67.

Compared with “TATTATTTTATGAGACATAAAAAAAAAAAAAAAAAA [CACACA_negctrl_site1534]”, “TTAAGTATTTTACGTACACACTTATAAATGTACAGG [CACACA_site6012]” is higher in “gcPBM binding intensity (ln)” value: 8.79 for the first, 9.55 for the second.

Going from “AAGTATTATTATAAGACACACATGTATATAAGTATA [CACACA_site1479]” to “TACAAAAGTTAAACATGTACTTAATTATATGTTTTT [XGTACX_site2852]”, the “gcPBM binding intensity (ln)” value falls from 10.1 to 9.59.

Going from “GAATATATAAGAACAAATATGGCTTAGAAAAAAAAA [TGCATGCA_negctrl_site451]” to “ATAAAAATGGATGAATATAAAAAAAAAAAAATATAT [CACACA_negctrl_site182]”, the “gcPBM binding intensity (ln)” value rises from 9.55 to 9.61.

Compared with “TATATATATGGGTTTACACACAATAATGAATTAAAA [CACACA_site915]”, “CCCATGCATTTTTGCACACACATATATTTATAAATA [CACACA_site6785]” is higher in “gcPBM binding intensity (ln)” value: 9.88 for the first, 9.93 for the second.

Compared with “CCCACAGACGGACACACACACACATATATATATATA [CACACA_site4352]”, “TCAAGTTTATATTAACTATTTATGAAAAAAAAAAGA [CACACA_negctrl_site902]” is lower in “gcPBM binding intensity (ln)” value: 11.1 for the first, 9.38 for the second.

Going from “TTACACTAAATATGTTCACACATTTTTTCCATCATA [CACACA_site4647]” to “CTAAAAATTTTAATTGCACACCACGTTGGACTATTT [CACACA_site1489]”, the “gcPBM binding intensity (ln)” value rises from 9.74 to 9.77.

Compared with TATAAGGCAATAATAGTGCACTAAGATATATAATGA, “ATATATTACAAATGGAGTACTAAAAATATTCTATAT [XGTACX_site6669]” is lower in “gcPBM binding intensity (ln)” value: 9.94 for the first, 9.67 for the second.

“GATTATTTAAAATATACATGCGCGCACATATGCATA [TGCATGCA_site630]” was tested, and the “gcPBM binding intensity (ln)” value was 9.55.
